# Measured values: PubChem BioAssay AID504333 (National Center for Advancing Translational Sciences (NCATS), 2011)
# Among all 360,000 compounds or so, about 16,000 (4.4%) were called active. Inconclusive means that the source gave no clear call. Such entries were picked first, then a sample of the others. The call rests on the fitted dose curve; in most records, active means well fitted inhibition curve with a large enough effect; inconclusive means small, poorly fitted or top-dose-only effect; inactive means no such curve, though single readings can be large or run the other way. Where the call is inconclusive, the potency comes from a doubtful curve fit.
# Molecular target: Bromodomain adjacent to zinc finger domain protein 2B (Homo sapiens) (UniProt Q9UIF8)
# UniProt Q9UIF8, sequence (Q9UIF8 whole entry, looked up, the tested form may be a part): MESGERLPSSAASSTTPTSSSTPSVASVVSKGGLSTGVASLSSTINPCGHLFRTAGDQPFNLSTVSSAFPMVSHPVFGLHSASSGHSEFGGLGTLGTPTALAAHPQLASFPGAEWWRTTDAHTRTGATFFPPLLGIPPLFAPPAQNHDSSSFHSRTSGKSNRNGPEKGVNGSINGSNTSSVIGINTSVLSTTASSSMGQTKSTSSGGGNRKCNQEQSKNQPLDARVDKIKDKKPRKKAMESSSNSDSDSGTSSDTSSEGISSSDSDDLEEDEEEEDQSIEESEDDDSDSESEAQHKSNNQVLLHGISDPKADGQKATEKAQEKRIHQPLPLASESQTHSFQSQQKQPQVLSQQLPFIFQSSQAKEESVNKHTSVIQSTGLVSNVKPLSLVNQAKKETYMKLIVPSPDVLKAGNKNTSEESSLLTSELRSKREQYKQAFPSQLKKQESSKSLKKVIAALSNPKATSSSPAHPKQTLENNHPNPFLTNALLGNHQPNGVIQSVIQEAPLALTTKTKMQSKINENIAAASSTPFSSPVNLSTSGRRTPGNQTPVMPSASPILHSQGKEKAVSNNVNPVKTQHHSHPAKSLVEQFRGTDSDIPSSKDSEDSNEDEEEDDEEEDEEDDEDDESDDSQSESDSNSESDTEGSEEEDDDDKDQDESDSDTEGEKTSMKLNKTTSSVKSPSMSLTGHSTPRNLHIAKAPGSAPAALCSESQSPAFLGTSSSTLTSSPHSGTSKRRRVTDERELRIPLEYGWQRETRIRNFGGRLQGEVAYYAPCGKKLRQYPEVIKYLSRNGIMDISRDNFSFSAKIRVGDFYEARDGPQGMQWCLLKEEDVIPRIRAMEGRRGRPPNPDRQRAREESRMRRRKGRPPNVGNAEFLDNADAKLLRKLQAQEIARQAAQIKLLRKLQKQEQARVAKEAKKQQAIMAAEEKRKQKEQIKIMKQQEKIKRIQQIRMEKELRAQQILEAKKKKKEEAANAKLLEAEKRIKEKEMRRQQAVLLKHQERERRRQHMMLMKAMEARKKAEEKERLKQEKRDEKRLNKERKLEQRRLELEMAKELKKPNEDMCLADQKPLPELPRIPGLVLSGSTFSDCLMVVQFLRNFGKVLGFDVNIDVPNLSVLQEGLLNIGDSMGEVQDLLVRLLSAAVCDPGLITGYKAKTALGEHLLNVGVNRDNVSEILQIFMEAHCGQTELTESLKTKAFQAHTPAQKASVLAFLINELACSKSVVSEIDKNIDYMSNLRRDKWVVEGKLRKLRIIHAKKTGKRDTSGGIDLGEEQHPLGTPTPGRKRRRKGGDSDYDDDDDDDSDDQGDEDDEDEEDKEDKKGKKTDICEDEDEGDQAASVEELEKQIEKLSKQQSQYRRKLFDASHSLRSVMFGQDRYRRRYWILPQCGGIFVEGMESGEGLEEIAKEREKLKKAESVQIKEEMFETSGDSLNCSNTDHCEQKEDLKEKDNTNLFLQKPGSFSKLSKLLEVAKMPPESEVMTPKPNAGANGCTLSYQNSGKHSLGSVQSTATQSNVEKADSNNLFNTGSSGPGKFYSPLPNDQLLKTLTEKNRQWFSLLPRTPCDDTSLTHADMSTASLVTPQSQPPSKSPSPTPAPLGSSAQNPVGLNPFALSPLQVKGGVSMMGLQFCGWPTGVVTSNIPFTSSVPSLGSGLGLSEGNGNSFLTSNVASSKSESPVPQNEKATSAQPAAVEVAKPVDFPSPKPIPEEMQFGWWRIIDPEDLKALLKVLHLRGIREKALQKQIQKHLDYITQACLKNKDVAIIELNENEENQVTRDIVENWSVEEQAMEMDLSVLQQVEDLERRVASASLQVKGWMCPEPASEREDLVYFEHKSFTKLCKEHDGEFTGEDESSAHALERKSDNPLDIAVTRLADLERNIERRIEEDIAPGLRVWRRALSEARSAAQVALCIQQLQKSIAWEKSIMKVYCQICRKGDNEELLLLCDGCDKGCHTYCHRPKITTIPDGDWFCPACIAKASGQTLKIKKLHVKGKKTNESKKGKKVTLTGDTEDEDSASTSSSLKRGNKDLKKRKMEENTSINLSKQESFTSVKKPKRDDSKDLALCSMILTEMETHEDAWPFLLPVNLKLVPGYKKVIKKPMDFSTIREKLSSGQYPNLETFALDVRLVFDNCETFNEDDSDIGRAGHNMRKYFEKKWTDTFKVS
# Assay: qHTS Assay for Inhibitors of BAZ2B; further: nearly all actives have a fitted effect of over 60% in size
# Settings: AlphaScreen BAZ2B-H3K14Ac peptide displacement; activity change, negative = inhibition: at 114 µM (top of the series) unless noted
# In short: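 AlphaScreen luminescence quantifies BAZ2B engagement of H3K14Ac peptide; the protein and biotinylated peptide are both at 50 nM final, buffer PBS pH 7.4 with 0.01% Tween-20, all steps at room temperature.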
# On the % scale 0 is the no-effect control and ±100 the full control effect; potency means the concentration at half of the fitted maximal effect; tags describe the fitted curve by direction and shape.
SMILES,"activity change, negative = inhibition",Potency
COCCN(C(=O)COC(=O)c1nc(Cl)ccc1Cl)c1c(N)n(Cc2ccccc2)c(=O)[nH]c1=O,inactive: 7.96%,
COCC(C)NC(=O)CSc1nc2cc(S(=O)(=O)N3CCCCC3)ccc2o1 (configuration not stated),inactive: -5.71%,
CCN(CC)CCC(c1cc(OC)c(OC)c(OC)c1)c1c(OC)cc(OC)c2c(-c3ccccc3)cc(=O)oc12 (configuration not stated),inactive: -14.6%,
N#CC1(NC(=O)COC(=O)/C=C/c2ccc3ccccc3n2)CCCCC1,,"inconclusive: 70.8 µM [inhibitor, single point]"
COc1ccc(CCNCC(C)c2ccccc2)cc1 (configuration not stated),,"inconclusive: 89.1 µM [inhibitor, single point]"
CCOC(=O)c1sc(NC(=O)C(C)Oc2ccc(OC)cc2)c(C(=O)OCC)c1C (configuration not stated),inactive: 5.12%,
Cc1cccc(Nc2nc3ccccc3s2)c1C,inactive: 5.82%,
O=c1cnnc(N/N=C/c2cccs2)[nH]1,,active: 79.4 µM
Cc1ccc(S(=O)(=O)N2N=C3CCCCC3C2(O)C(F)(F)F)cc1 (configuration not stated),inactive: -15.4%,
Cc1ccc(-n2nnnc2SCC(=O)N(CC(C)C)c2c(N)n(CC(C)C)c(=O)[nH]c2=O)cc1,inactive: -6.24%,
CS(=O)(=O)Nc1ccc(C2=NN(S(=O)(=O)c3ccc(F)cc3)C(c3ccco3)C2)cc1 (configuration not stated),inactive: -19.3%,
CCN(CC)S(=O)(=O)c1ccc2c(c1)nc(-c1ccccn1)n2C,inactive: 3.71%,
Cc1ccnc(NS(=O)(=O)c2ccc(N3C(=O)c4c(Cl)c(Cl)c(Cl)c(Cl)c4C3=O)cc2)n1,,"inconclusive: 89.1 µM [inhibitor, single point]"
O=[N+]([O-])c1cccnc1NCCNc1ncc(C(F)(F)F)cc1Cl,,"inconclusive: 70.8 µM [inhibitor, single point]"
CC(C)CNS(=O)(=O)c1cc2c3c(c1)CCC(=O)N3CCC2,inactive: -6.47%,
O=C(CN1CCOCC1)Nc1ccc2c(c1)CCC2,inactive: -15.9%,
O=C1C2C3C=CC(C4CC34)C2C(=O)N1/N=C/c1ccc(-c2ccc(Cl)cc2[N+](=O)[O-])o1 (configuration not stated),,"inconclusive: 25.1 µM [inhibitor, full curve]"
O=C(COc1ccccc1Cl)NC(=S)Nc1ccccc1N1CCCC1,,active: 20 µM
COc1cccc(NC(=O)CN2C(=O)CC(c3ccco3)Sc3ccccc32)c1 (configuration not stated),,"inconclusive: 39.8 µM [inhibitor, partial curve]"
CCC(C)(C)NC(=O)C(c1sccc1C)N(Cc1ccco1)C(=O)c1csnn1 (configuration not stated),,"inconclusive: 89.1 µM [inhibitor, single point]"
CC1CCN(CCOc2cccc(Br)c2)CC1,,active: 56.2 µM
O=S(=O)(Nc1ccc(Cl)cc1)c1ccc(N2CCOCC2)c(NC(=S)NCCN2CCOCC2)c1,,"inconclusive: 79.4 µM [inhibitor, single point]"
COc1ccc(-c2n(CC(=O)OC3CC(C)CCC3C(C)C)c3ccccc3[n+]2C)cc1 (configuration not stated),,"inconclusive: 7.94 µM [inhibitor, partial curve, poor fit]"
C#CCOCCOCCOCCNc1nc(N2CCN(C(=O)[C@H](CCC(=O)O)n3cc(C(N)Cc4ccc(O)cc4)nn3)CC2)nc(N2CCN(C(=O)[C@H](Cc3ccc(O)cc3)n3cc(C(N)[C@H](C)CC)nn3)CC2)n1 (some centres not stated),,active: 50.1 µM

SMILES,"activity change, negative = inhibition",Potency
COc1ccc(-c2csc(NC(=S)NC(=O)/C=C/c3ccco3)n2)cc1OC,inactive: -6.06%,
COCCn1nnnc1C(c1ccc(OC)cc1OC)N1CCN(c2ccccc2F)CC1 (configuration not stated),,"inconclusive: 89.1 µM [inhibitor, single point]"
O=C(O)CSCc1nc2cccnc2n1C1CCCCC1,inactive: -12.1%,
Cc1cc(Nc2cccc(Br)c2)n2c(nc3ccccc32)c1C#N,,"inconclusive: 89.1 µM [inhibitor, single point]"
Cc1ccc2[nH]c3c(NCc4ccccc4)ncnc3c2c1,,"inconclusive: 70.8 µM [inhibitor, single point]"
CCOc1cc(C(Nc2cc(C)ccn2)c2ccc3cccnc3c2O)ccc1OC (configuration not stated),,active: 10 µM
COc1ccc(NCc2ccccc2[N+](=O)[O-])cc1OC,,active: 50.1 µM
Cc1ccc(Sc2ncccc2[N+](=O)[O-])cc1,,"inconclusive: 39.8 µM [inhibitor, partial curve]"
CCOC(=O)N1CCN(CC(=O)Nc2nnc(C(F)(F)F)s2)CC1,,"inconclusive: 79.4 µM [inhibitor, single point]"
CN(CCOc1ccccc1)CCOc1ccccc1,inactive: -21.7%,
CC(C)OCCCn1c(-c2ccc(Br)cc2)c[nH]c1=S,,"inconclusive: 44.7 µM [inhibitor, partial curve]"
CCOc1ccc(CCNC(=O)c2ccc3c(=O)[nH]c4c(C(=O)NC(C)C)sc(=S)n4c3c2)cc1,,"inconclusive: 28.2 µM [inhibitor, partial curve]"
O=C(Nc1ccc(O)cc1)/C(=C/c1ccco1)NC(=O)c1ccccc1,,"inconclusive: 89.1 µM [inhibitor, single point]"
S=c1[nH]nc(-c2cc(-c3ccco3)[nH]n2)n1-c1ccccc1,,"inconclusive: 89.1 µM [inhibitor, single point]"
CCN(CC)C(=O)C(=O)N/N=C/c1ccc(Br)cc1,inactive: 11.3%,
O=C(CSc1nccn1Cc1ccccc1)Nc1nc2ccccc2s1,,"inconclusive: 44.7 µM [inhibitor, partial curve]"
Cc1cc(C)n2nc(SCC(=O)c3cc(C)n(CC4CCCO4)c3C)nc2n1 (configuration not stated),,"inconclusive: 79.4 µM [inhibitor, single point]"
COc1ccc(OC)c(NC(=O)C(=O)NNC(=O)COc2ccc(Br)cc2C)c1,,"inconclusive: 22.4 µM [inhibitor, full curve, poor fit]"
Cc1ccnc(NS(=O)(=O)c2ccc(NC(=O)c3ccc([N+](=O)[O-])s3)cc2)n1,,"inconclusive: 56.2 µM [inhibitor, partial curve, poor fit]"
CC1CCN(c2nc3ccc(C(=O)NCCCN4CCCCC4)cc3s2)CC1,inactive: 5.55%,
Cc1ccc(CNC(=O)c2cn(C3CCCC3)c(=O)c3c2c2ccccc2n3C)o1,,active: 56.2 µM
COc1ccc(N2C(=O)/C(=C\c3ccco3)N=C2SCC(=O)NC(C)C)cc1Cl,,"inconclusive: 44.7 µM [inhibitor, partial curve]"
CCn1nc(CC(=O)Nc2nnc(CC(=O)N3CCCCC3)s2)c2ccccc2c1=O,,"inconclusive: 11.2 µM [inhibitor, single point]"
CC1=NOC(=O)/C1=C\c1ccc(-c2ccc(Cl)c(C(=O)O)c2)o1,,active: 79.4 µM

SMILES,"activity change, negative = inhibition",Potency
CCCn1c(C(=O)OC)cc2c1ccn2-c1ccc(F)cc1,,"inconclusive: 12.6 µM [inhibitor, partial curve]"
COc1ccccc1N1CCN(C(=O)c2ccc3c(c2)N(Cc2cc(C)ccc2C)C(=O)c2ccccc2S3(=O)=O)CC1,,"inconclusive: 22.4 µM [inhibitor, full curve]"
COc1ccc(CCNC(=O)CNCCc2ccc(F)cc2)cc1,,active: 79.4 µM
O=C(c1ccccc1)c1ccc(OCCCN2CCCC2)cc1,,"inconclusive: 89.1 µM [inhibitor, single point]"
COc1cccc(C(=O)Nc2ccc(N(C)C)cc2)c1OC,,active: 50.1 µM
Cc1cc2c(n1-c1ccc(Br)cc1)CC(C)(C)CC2=O,,"inconclusive: 89.1 µM [inhibitor, single point]"
COCc1ccc(C(=O)N2CCCC(Nc3ccc(C(C)C)cc3)C2)o1 (configuration not stated),,"inconclusive: 50.1 µM [inhibitor, partial curve]"
COC(=O)C1=C(C(=O)OC)C2C(C)=CC(C)=CN2C(C(=O)OC)=C1C(=O)OC (configuration not stated),,"inconclusive: 89.1 µM [inhibitor, single point]"
CN(C)c1ccnc2sc(C(=O)NCc3ccccc3)c(N)c12,,"inconclusive: 89.1 µM [inhibitor, single point]"
NC(=O)[C@@H]1CCNc2c(I)cc([N+](=O)[O-])cc2C(=O)N[C@@H](CCC(=O)O)C(=O)N[C@@H](CO)C(=O)N1,inactive: -37.9%,
COc1ccc(-c2cc(=O)oc3c(C)c(OCC(=O)NCCCn4ccnc4)ccc23)cc1,,"inconclusive: 25.1 µM [inhibitor, full curve]"
CC(C)(C)C(=O)O/N=C(\N)c1ccc(Oc2cc(Cl)cc(Cl)c2)c([N+](=O)[O-])c1,,"inconclusive: 25.1 µM [inhibitor, full curve]"
COc1ccccc1NC(=O)C1=C(C)Nc2nc(CCCO)nn2C1c1cccnc1 (configuration not stated),inactive: -5.11%,
Cc1cccc(OCCn2cnc(Cl)c2Cl)c1,,active: 28.2 µM
CC(Nc1oc(-c2ccco2)nc1C#N)c1ccccc1 (configuration not stated),,"inconclusive: 50.1 µM [inhibitor, partial curve]"
O=C1c2ccccc2NC(c2ccc(O)c(O)c2)N1c1ccccc1Cl (configuration not stated),,active: 39.8 µM
Cc1ccc(NC(=O)c2cccc(NC3=NC4CS(=O)(=O)CC4S3)c2)cc1 (configuration not stated),,"inconclusive: 89.1 µM [inhibitor, single point]"
CC(=O)c1cccc(NC(=O)Cn2c(-c3cncs3)nc3ccccc32)c1,,"inconclusive: 20 µM [inhibitor, full curve]"
CC(=O)c1ccc2c(c1)C1C=CCC1C(C(=O)O)N2 (configuration not stated),,active: 6.31 µM
CCOC(=O)C(=O)Cc1nc2ccccc2s1,,"inconclusive: 79.4 µM [inhibitor, partial curve]"
Cc1ccc(NC(=O)CS(=O)CC(=O)N(c2ccccc2F)C(C)C(=O)NC2CCCC2)cc1 (configuration not stated),inactive: 3.69%,
Cc1cc(OCCCN2CCN(Cc3ccccc3)CC2)ccc1[N+](=O)[O-],,active: 17.8 µM
O=c1[nH]c2ccccc2n2c(-c3ccccc3)nnc12,,active: 20 µM
CN(c1ccc(C(=O)NCCCn2ccnc2)cc1)S(C)(=O)=O,,"inconclusive: 89.1 µM [inhibitor, single point]"
